Measured values published in PubChem BioAssay AID1030 (National Center for Advancing Translational Sciences (NCATS), 2008).
The campaign covered roughly 220,000 compounds. About 16,000 (7.3%) were called active. The inconclusive results got no clear call from the source; some entries with a clear call stand among them for comparison. Calls follow the shape of the dose curve; as a rule, active = well fitted inhibition curve with a large enough effect (not every such curve was filed as active); inconclusive = small, poorly fitted or top-dose-only effect, or another doubt; inactive = no such curve, though single readings can be large or run the other way. No potency is given beside an inconclusive call; the fits are too rough.

Biological target: Aldehyde dehydrogenase 1A1 (Homo sapiens) (UniProt P00352)
Assay: qHTS Assay for Inhibitors of Aldehyde Dehydrogenase 1 (ALDH1A1)
Conditions: Purified ALDH1A1, NADH fluorescence, propionaldehyde substrate; series mostly up to 75.3 µM
Potency is read from the fitted curve at half-maximal effect; tags tell the direction and shape of the fitted curve.

UniProt P00352, sequence (P00352 whole entry, looked up): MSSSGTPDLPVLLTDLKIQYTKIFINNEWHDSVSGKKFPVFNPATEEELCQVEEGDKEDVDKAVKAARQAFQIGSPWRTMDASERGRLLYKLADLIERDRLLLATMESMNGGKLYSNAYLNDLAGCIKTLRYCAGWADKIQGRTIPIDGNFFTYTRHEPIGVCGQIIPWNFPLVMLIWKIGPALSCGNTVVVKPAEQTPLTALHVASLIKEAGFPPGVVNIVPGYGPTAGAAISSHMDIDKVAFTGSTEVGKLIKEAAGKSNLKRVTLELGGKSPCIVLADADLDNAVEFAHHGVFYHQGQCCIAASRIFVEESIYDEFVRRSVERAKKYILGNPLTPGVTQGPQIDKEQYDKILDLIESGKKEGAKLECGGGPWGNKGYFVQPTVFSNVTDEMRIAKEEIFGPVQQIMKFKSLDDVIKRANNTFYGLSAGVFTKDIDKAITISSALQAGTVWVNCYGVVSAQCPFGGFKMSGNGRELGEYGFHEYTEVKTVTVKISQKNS

Structure (SMILES) | Potency
CCN(C(=O)CSc1ncn[nH]1)c1cccc2ccccc12 | active: 25.1 µM
CCCn1c(=N)n(CC(O)COc2cccc(C)c2)c2ccccc21 (stereo not drawn) | inconclusive [inhibitor, single point]
CCC1CCCCN1C(=O)COC(=O)c1cc(Br)ccc1Cl (stereo not drawn) | inconclusive [inhibitor, single point]
CCCn1nnnc1-c1ccc(Cl)cc1 | inconclusive [inhibitor, single point]
CN1C(=O)C(CC(=O)NCC2CCCCC2)SC1=Nc1ccccc1 (stereo not drawn) | inconclusive [inhibitor, single point]
Clc1ccc(-n2ncc3c(NCc4ccccn4)ncnc32)cc1 | inconclusive [inhibitor, partial curve]
COc1cccc(NC(=O)c2ccc(C(=O)c3ccccc3)o2)c1 | inconclusive [inhibitor, single point]
COc1ccc(CNC(=O)COc2ccc(C(=O)c3ccc(F)cc3)cc2)cc1 | inconclusive [inhibitor, partial curve]
Cn1c(N)c(C(=O)COC(=O)C2CCCCC2)c(=O)n(C)c1=O | inconclusive [inhibitor, partial curve]
O=C(NCc1ccco1)C1CC2CCC1C2 (stereo not drawn) | inactive
CC(C)c1onc(C(=O)N2CCCCC2)c1[N+](=O)[O-] | inconclusive [inhibitor, single point]
COc1ccc(C2CC(c3ccc(Cl)c(Cl)c3)Nc3nc(N)nn32)cc1 (stereo not drawn) | inconclusive [inhibitor, single point]
Cc1ccccc1OCc1nc2ccccc2c(=O)n1/N=C/c1c[nH]c2ccccc12 | inactive
Cc1sc(NC(=O)COc2ccccc2)c(C#N)c1C | inconclusive [inhibitor, partial curve]
CCN(C(=O)c1cnc(N2CCN(c3ncccn3)CC2)c2ccccc12)c1cccc(Cl)c1 | inconclusive [inhibitor, single point]
N=c1ccn2c(n1)O[C@@H]1[C@H](O)[C@H](CO)O[C@@H]12 | inactive
COc1c(O)cc2c(-c3ccccc3)cc(=O)oc2c1OC | inconclusive [inhibitor, single point]
CC(C)c1ccc(NC(=O)C(c2ccccc2)N(Cc2ccco2)C(=O)CC2NC(=O)NC2=O)cc1 (stereo not drawn) | active: 7.94 µM
CCC(C)(C)C(=O)Nc1ncc(S(=O)(=O)c2ccc([N+](=O)[O-])cc2)s1 | inconclusive [inhibitor, single point]
Cc1cc(C)cc(Nc2ccc(C(=O)O)cc2N)c1 | inconclusive [inhibitor, partial curve]
Nc1ccc([N+](=O)[O-])c(N)c1 | inactive
N#CC1=C(N)SC(N)=C(C#N)C1c1ccnc2ccccc12 | inconclusive [inhibitor, partial curve]
O=C1CC(SC2=NCCS2)C(=O)N1c1ccc(Cl)cc1 (stereo not drawn) | inconclusive [inhibitor, partial curve]
O=C1CCC(=O)N1c1ccc(CSc2nnnn2C2CCCCC2)cc1 | inconclusive [inhibitor, single point]
[O-]/[N+](=C\c1ccc(F)cc1)c1ccccc1 | active: 20 µM

Structure (SMILES) | Potency
Cc1nn(Cc2ccccc2Cl)c2sc(C(=O)OC3CCCC3=O)cc12 (stereo not drawn) | active: 8.91 µM
CC(C)OC(=O)c1cc(NC(=S)Nc2ccc([N+](=O)[O-])cc2)cc(C(=O)OC(C)C)c1 | inconclusive [inhibitor, single point]
O=C(NNc1nc2cc3c(cc2s1)OCO3)c1cccc(F)c1 | inconclusive [inhibitor, single point]
CCOC(=O)c1nc2cc3n(c(CC(C)C)c-2c1C)CC(C)=C3C | inconclusive [inhibitor, partial curve]
CCn1cc(C(=O)Nc2sc(C)c(C)c2C(=O)OC)cn1 | inconclusive [inhibitor, single point]
Cc1cc(SCC(=O)c2cccs2)n2nc(C)c(-c3ccc(Cl)cc3)c2n1 | inconclusive [inhibitor, full curve]
C=CCOc1cccc(C2C(C(=O)c3ccco3)=C(O)C(=O)N2Cc2ccncc2)c1 (stereo not drawn) | inconclusive [inhibitor, single point]
Cc1ccc(-n2c(Cc3cccn3C)nnc2SCC(=O)Nc2cc(C)on2)cc1 | inconclusive [inhibitor, single point]
CC(C)(CNC(=O)COc1ccccc1Cc1ccccc1)N1CCOCC1 | inactive
OC(CNCc1ccc(Cl)c(Cl)c1)c1ccccc1 (stereo not drawn) | inactive
CCOC(=O)c1cc2c(=O)n3ccccc3nc2n(CCCOC)c1=NC(=O)c1cccnc1 | inconclusive [inhibitor, partial curve]
C=CCNC(=O)C(C#N)c1nc2ccccc2nc1N1CCCCCC1 (stereo not drawn) | inconclusive [inhibitor, single point]
O=C1CCCC/C1=C/Nc1cccc(C(F)(F)F)c1 | inconclusive [inhibitor, partial curve, poor fit]
O=S(=O)(CCN(CCS(=O)(=O)C(F)(F)F)CC1CCCO1)C(F)(F)F (stereo not drawn) | active: 7.08 µM
COc1cccc(-c2csc(N3CCN(C(=S)Nc4cccc(C)c4)CC3)n2)c1 | inconclusive [inhibitor, single point]
O=C(O)c1ccccc1Cl | inconclusive [inhibitor, partial curve]
O=C(Cn1nc(C(=O)O)c2ccccc2c1=O)Nc1ccc2c(c1)OCO2 | inactive
CCCCCCCCCCC1=C(C)C(=O)C(OC)=C(OC)C1=O | inconclusive [inhibitor, single point]
COC(=O)c1cn(NC(=O)c2ccc(OC)c([N+](=O)[O-])c2)c(=O)c2ccccc12 | inconclusive [inhibitor, single point]
O=C1C2C3C=CC(C3=C3CCCCC3)C2C(=O)N1Cc1ccccc1 (stereo not drawn) | active: 6.31 µM
CCOc1ccc(-c2[nH]ncc2-c2csc(C)n2)c(O)c1 | inactive
COC(=O)c1sccc1NC(=S)N1CCCC(C)C1 (stereo not drawn) | inconclusive [inhibitor, partial curve]
O=C(O/N=C1\CCS(=O)(=O)c2sccc21)C1CC1 | inactive
Cc1cc2n(n1)C(c1ccccc1)CC(c1ccc(Br)cc1)=N2 (stereo not drawn) | inconclusive [inhibitor, single point]
CCSc1nnc(-c2ccc(OC)cc2)o1 | inconclusive [inhibitor, single point]

Structure (SMILES) | Potency
CCCCCC[n+]1c(-c2ccccc2)csc1Nc1ccccc1 | inactive
Cc1c(Cl)cccc1NC(=S)NC1CCN(C(C)C)CC1 | inactive
CC(C)C(C)NC(=O)COc1ccc([N+](=O)[O-])cc1Cl (stereo not drawn) | inconclusive [inhibitor, single point]
O=C(NCc1ccccn1)C(=O)NN=C1CCCCCCCCCCC1 | inactive
CCOC(=O)N1CCC(NC(=O)c2cc(C(=O)Nc3ccc(S(=O)(=O)N4CCCCC4)cc3)ccc2CO)CC1 | inconclusive [inhibitor, partial curve]
CCOC(=O)C1CC(=O)c2cc(OC)c(OC)cc2C1 (stereo not drawn) | inconclusive [inhibitor, single point]
COCCNC(=O)C(=O)NNC(=O)CCc1ccccc1 | inactive
CN(C)/C=C1\NC(=S)N(c2ccccc2)C1=O | inconclusive [inhibitor, single point]
COc1ccc(N=Nc2ccc(N)nc2N)cc1 | inactive
COCCN(Cc1cc2ccc(C)c(C)c2nc1Cl)C(=O)N1CCOCC1 | inconclusive [inhibitor, single point]
CN(CC(=O)Nc1ccc(F)c(F)c1F)c1cnccn1 | inactive
O=C(Nc1ccc(F)cc1)N1CCN(c2ccc3nnc(-c4ccc(F)cc4)n3n2)CC1 | inconclusive [inhibitor, partial curve]
CCOC(=O)c1cc(NC(=O)N2CCOCC2)c(C)nc1C | inactive
COc1ccc(-c2csc(NC(=O)c3ccccc3NS(=O)(=O)c3ccc(F)c(F)c3)n2)cc1 | inconclusive [inhibitor, single point]
CC(C)(C)NC(=O)C(OC(=O)c1cccs1)c1ccc(F)cc1 (stereo not drawn) | inactive
Cc1onc(-c2c(Cl)cccc2Cl)c1NC(=O)NNc1ccccc1 | inactive
CCOc1ccc(S(=O)(=O)N/N=C2/CC(c3ccccc3)Oc3ccccc32)cc1 (stereo not drawn) | inconclusive [inhibitor, single point]
CNc1nc(-c2ccc3c(c2)CCN3S(=O)(=O)c2ccccc2)c(C)s1 | active: 8.91 µM
COc1cc2c(cc1OC)[C@H](C)N(CC1C(=O)O[C@@H]3C[C@@]4(C)CCC[C@H](C)[C@@]45OC5[C@H]13)CC2 (stereo partly drawn) | inactive
COc1ccccc1NC(=S)N(Cc1cccnc1)Cc1ccco1 | inactive
CCC1CCC(c2nnc(-c3ccc([N+](=O)[O-])cc3)o2)CC1 (stereo not drawn) | active: 11.2 µM
O=C(CNC(=S)N(CCCN1CCOCC1)Cc1cccs1)NC1CCCCC1 | inconclusive [inhibitor, single point]
COc1ccc(-c2cc(-c3ccccc3)c(C#N)c(=S)[nH]2)cc1 | inconclusive [inhibitor, partial curve]
